Laboratory results as given in the antibiotic and cytotoxicity screens of Wong et al. (2023).
The other results are listed elsewhere or left out.

How the values were obtained:
[1] = system: HSkMC (human skeletal muscle cells); assay: cytotoxicity call (relative viability < 0.9); details: 10 µM
[2] = system: HepG2; assay: cytotoxicity call (relative viability < 0.9); details: 10 µM
[3] = system: S. aureus RN4220; assay: growth inhibition call (relative growth <= 0.2); details: 50 µM

| SMILES | cytotoxicity call [1] | cytotoxicity call [2] | growth inhibition call [3] |
| --- | --- | --- | --- |
| CC(C)N1C[C@@H](CN(C)CCc2ccc(Cl)c(Cl)c2)Oc2c(NC(=O)c3ccncc3)cccc2C1=O | inactive | inactive | inactive |
| C[C@@H]1CN([C@@H](C)CO)S(=O)(=O)c2ccc(C#CCN(C)C)cc2O[C@@H]1CN(C)S(=O)(=O)c1cccc(F)c1 | inactive | inactive | inactive |
| CC(C)CC#Cc1ccc2c(c1)O[C@@H](CN(C)S(=O)(=O)c1ccc(F)cc1)[C@H](C)CN([C@H](C)CO)S2(=O)=O | inactive | inactive | inactive |
| CC(C)CN[C@H]1CCS(=O)(=O)C1 | inactive | inactive | inactive |
| CNC[C@H]1Oc2ccc(NC(=O)CCN3CCOCC3)cc2CC(=O)N([C@H](C)CO)C[C@@H]1C | inactive | inactive | inactive |
| C[C@H]1CN([C@@H](C)CO)C(=O)c2cc(NS(=O)(=O)c3cn(C)cn3)ccc2O[C@@H]1CN(C)C(=O)Nc1ccc(F)cc1 | inactive | inactive | inactive |
| CN(C)CC(=O)N[C@@H]1CC[C@@H](CCNC(=O)C2CC2)O[C@@H]1CO | inactive | inactive | inactive |
| CC1(C)[C@@H](OC(=O)CCC(=O)O)CC[C@]2(C)[C@H]3C(=O)C=C4[C@@H]5C[C@@](C)(C(=O)O)CC[C@]5(C)CC[C@@]4(C)[C@]3(C)CC[C@@H]12 | inactive | inactive | inactive |
| c1c[nH]cn1 | inactive | inactive | inactive |
| C[C@@H]1CN([C@@H](C)CO)C(=O)c2cccc(NS(=O)(=O)c3ccccc3)c2O[C@H]1CN(C)S(=O)(=O)c1ccccc1 | inactive | inactive | inactive |
| CC(C)N1CC[C@@H](CN(C)Cc2ccc(C(=O)O)cc2)Oc2cc(-c3ccc(C(F)(F)F)cc3)ccc2S1(=O)=O | inactive | inactive | inactive |
| CCN(CC)CCS(=O)(=O)[C@@H]1CCN2C(=O)c3coc(n3)CC(=O)C[C@H](O)/C=C(C)/C=C\CNC(=O)/C=C/[C@@H](C)[C@H](C(C)C)OC(=O)[C@@H]12 | inactive | inactive | active |
| C[C@@H]1CCCCO[C@@H](CN(C)C(=O)Cc2ccccc2)[C@@H](C)CN([C@@H](C)CO)C(=O)c2cc(NC(=O)c3ccccc3)ccc2O1 | inactive | inactive | inactive |
| C[C@H](CO)N1C[C@H](C)[C@@H](CN(C)C(=O)Nc2ccc(C(F)(F)F)cc2)OCCCC[C@H](C)Oc2ccc(NC(=O)Cc3ccccc3)cc2C1=O | inactive | inactive | inactive |
| C[C@@H]1CN([C@@H](C)CO)C(=O)c2cc(C#CCN(C)C)cnc2O[C@H]1CN(C)S(=O)(=O)c1cn(C)cn1 | inactive | inactive | inactive |
| O=C(C[C@@H]1CC[C@@H]2[C@H](COC[C@@H](O)CN2S(=O)(=O)c2ccccc2Cl)O1)NCCc1ccncc1 | inactive | inactive | inactive |
| CC(=O)OCC(=O)C12N=C(C)OC1CC1C3CCC4=CC(=O)C=CC4(C)C3C(O)CC12C (configuration not stated) | inactive | inactive | inactive |
| CCc1nc2ccc(C(=O)Nc3ccc(OC)c(OC)c3)cn2c1N(CC)Cc1ccc(OC)c(OC)c1 | inactive | inactive | inactive |
| CCC(=O)N[C@@H]1C=C[C@@H](CC(=O)OC)O[C@@H]1CO | inactive | inactive | inactive |
| COc1ccc(S(=O)(=O)Nc2ccc3c(c2)C(=O)N([C@@H](C)CO)C[C@@H](C)[C@@H](CN(C)S(=O)(=O)c2ccc(Cl)cc2)OCCCC[C@@H](C)O3)cc1 | inactive | inactive | inactive |
| COc1ccc(S(=O)(=O)Nc2ccc3c(c2)C(=O)N([C@@H](C)CO)C[C@@H](C)[C@H](CN(C)CC2CCCCC2)OCCCC[C@H](C)O3)cc1 | inactive | inactive | inactive |
| C[C@H]1CN([C@@H](C)CO)C(=O)c2cccc(NC(=O)c3ccc(-c4nccs4)cc3)c2O[C@@H]1CN(C)Cc1ccc(Cl)c(Cl)c1 | active | inactive | inactive |
| COc1ccc2nc(Cl)sc2c1 | inactive | inactive | inactive |
| C[C@@H]1CCCCO[C@@H](CN(C)Cc2ccc(Cl)c(Cl)c2)[C@H](C)CN([C@@H](C)CO)C(=O)c2cc(NS(C)(=O)=O)ccc2O1 | inactive | inactive | inactive |
| O=C(C[C@@H]1CC[C@@H]2[C@H](COC[C@@H](O)CN2C(=O)c2ccncc2)O1)NC1CCC1 | inactive | inactive | inactive |
| CS(=O)(=O)N1[C@@H]2Cn3c(ccc(-c4cccc(F)c4)c3=O)[C@H]1[C@@H](C(=O)N1CCOCC1)[C@@H]2CO | inactive | inactive | inactive |
| NS(=O)(=O)c1ccc(Cl)c(S(N)(=O)=O)c1 | inactive | inactive | inactive |
| CN1CCN(C(=O)C[C@H]2C=C[C@@H](NS(=O)(=O)c3cccc(F)c3)[C@H](CO)O2)CC1 | inactive | inactive | inactive |
| C[C@@H]1CN([C@@H](C)CO)C(=O)Cc2cc(NS(C)(=O)=O)ccc2O[C@H]1CN(C)S(=O)(=O)c1cccs1 | inactive | inactive | inactive |
